# Substitutions are numbered along the chain they refer to. The list shows a part of the results.
# T1: UNK ZnF1-3 (human, UniProt Q9C0B0 31-174)
# T1 sequence: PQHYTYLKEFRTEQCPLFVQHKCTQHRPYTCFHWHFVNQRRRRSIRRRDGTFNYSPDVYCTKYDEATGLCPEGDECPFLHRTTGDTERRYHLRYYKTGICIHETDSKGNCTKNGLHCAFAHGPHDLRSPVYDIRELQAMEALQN
# B1: chr2:9570881:9570882:+_ENSG00000119203_ENST00000238112|hu_mus|hu_hu_hu_mus_False|48_88 (ssRNA)
# RNA: GGGAGUUCUACAGUCCGACGAUCACUUGUCUUCUGAAGGAACCAGGGCAGAGCUCCACAGUGAUCCAAAUGGAAAUGACUGAUCAAUAGGAGAUCAAUCUCAGCUGGGUCGAUAAGGUCAAUGUAAGGAAGGGCAUCCAUUCCCAACAGAGGAUUGAGCAUCA
# B2: chr3:52726942:52726943:+_ENSG00000163938_ENST00000418458|hu_hu|FALSE|FALSE (ssRNA)
# RNA: GGGAGUUCUACAGUCCGACGAUCUCGCAGAGCAAGCGCAGAGGAGGAAUUAAGUGGAGAUACGAUGAAGCUCGGACUAUCUAUGAUUGUGAUCUGUUUGUCCAAGGGGACAACUUGCAUGCUCCUUGUAAGCCCCAUGGAUACCAACAGAGGAUUGAGCAUCA
# B3: chr5:33369694:33369695:+_ENSMUSG00000018965_ENSMUST00000019109|mus_hu|motif|central (ssRNA)
# RNA: GGGAGUUCUACAGUCCGACGAUCGGAAUCCUCGUUUAGUGUGUCCAGCUCAGCUAUGGCAUCAUCGAAGGCUUGUUUGGCGGAGAGGCAGGCUUGCUCAGGUGCAUUCUGGAUCUCAUAGUAGAACACGGAGAAGUUGAGGGCCAACAGAGGAUUGAGCAUCA
# B4: chr1:220276048:220276049:+_ENSG00000067704_ENST00000302637|hu_hu|hu_hu_hu_mus_True|48_48 (ssRNA)
# RNA: GGGAGUUCUACAGUCCGACGAUCGCAAAUUGCCUGGUUGGCGGGAAUUGUCCAAGGCUGGGUGGUCCAAACUAAAACGCUAACAGGAGAUGAACCAUCUGUAAGAGACUCCAACUUCGGAGGAGGUCUCAGGAGGGGGAAUCUCAACAGAGGAUUGAGCAUCA
# B5: 72180415_72186097_5597_CDS_ENSG00000066933_ENST00000356056|human|control|control (ssRNA)
# RNA: GGGAGUUCUACAGUCCGACGAUCAAGUUUUGCUUGUUCAUCAACUGACGAAAAUCGCUGUGAUGUCUCUCUUUGGCCUGGCCCAGCUAACUUCACAGGUUUCCAUGCUGGUUCAUCUUCUUUAUGGAGUUGAGGAUUUUUACUCAACAGAGGAUUGAGCAUCA
# B6: chr12:109547708:109547709:+_ENSG00000076248_ENST00000242576|hu_mus|FALSE|FALSE (ssRNA)
# RNA: GGGAGUUCUACAGUCCGACGAUCAGACUUCUGGAGCAGUUCAUUGGCUUUAGAAAAAUGUCUGCAUCCCAGGAACCCUCUGUGCACCGACAGCGGGGAGGGGUGAGCUGUCUGCAGGACAUGGUGACGCUUCCUGUCAAUGACCAACAGAGGAUUGAGCAUCA
# B7: chr7:141438946:141438947:+_ENSG00000106028_ENST00000265304|hu_mus|hu_hu_hu_mus_True|28_28 (ssRNA)
# RNA: GGGAGUUCUACAGUCCGACGAUCGACGAAAUACCUGUAACACAGGUCUUCGAAACAUGGCUUCUGUUUUUCUUACAACCUAAUCUUUAGGCUUUUCCUAAAGGAAAAACCCGAGCAAGAAAAAUGAUAAAUCAAGAAACUACACAACAGAGGAUUGAGCAUCA
# B8: chrX:71549762:71549763:+_ENSMUSG00000019087_ENSMUST00000019231|mus_mus|mus_mus_mus_hu_False|68_108 (ssRNA)
# RNA: GGGAGUUCUACAGUCCGACGAUCAAAGUGUACCACUUCUUAUUGUUAGCACAACAUCACCAGAAAAAAAACAUAACAGCCAAGCAGGACAGACAGUUAAGUAGUACUUCCACACUCCCAAACUCAGGGAGCCCUAUAACCUUACAACAGAGGAUUGAGCAUCA
# B9: chr22:19452774:19452775:-_ENSG00000070010_ENST00000399523|hu_hu|hu_hu_hu_mus_False|58_58 (ssRNA)
# RNA: GGGAGUUCUACAGUCCGACGAUCCUUCUCAUUGUAGUUGAUAGCAAUCACAUCUCCAGUCGUCAGACAGGCGAAGUUCCUAAGUGCAUUUUCUAAUACCGCUUUAGGGUUGGUAAUAUCCAGGAAGUCUGGGCUCUGAGGCUGCAACAGAGGAUUGAGCAUCA
# B10: chr4:115894766:115894767:+_ENSMUSG00000028698_ENSMUST00000030464|mus_hu|mus_mus_mus_hu_True|48_108 (ssRNA)
# RNA: GGGAGUUCUACAGUCCGACGAUCUUCACACGGAAAUUGUACUUCGGGUUUUCCAACGGCCAGUACCAGUCCGGCCAAACUACCCGAUGAGGACAAGCCCCCUCUCUCCUACAGAACACAACAAAAUGCCCCCGAACUUUCAAGCAACAGAGGAUUGAGCAUCA
# B11: chr22:19452774:19452775:-_ENSG00000070010_ENST00000399523|hu_hu|hu_hu_hu_mus_False|1_108 (ssRNA)
# RNA: B9 RNA with C27U, G33A, C78U, A81C, G83A, C141U
# B12: chr7:75932113:75932114:+_ENSG00000106211_ENST00000248553|hu_hu|hu_hu_hu_mus_False|1_98 (ssRNA)
# RNA: GGGAGUUCUACAGUCCGACGAUCCUGCGACCACUCAUCCGGCAGCCGGGGCACCCCGAAAGCUUGAUCGAAGAGGCGGCUGUGUGCAGGGUACCAGUCCCGGAAUGGUUCCCAGCUCGGGCUCCGCAGCAGCGAGAGGACGCGCAACAGAGGAUUGAGCAUCA
# B13: chr9:95013113:95013114:-_ENSG00000196305_ENST00000443024|hu_hu|hu_hu_hu_mus_False|58_78 (ssRNA)
# RNA: GGGAGUUCUACAGUCCGACGAUCCUCAGUCAGAAAGGGCGUGUAAGGGGCCAUCAGUCUGCAAAGAGAAAGCAGGACACUAAACAAUGUCUCCAGAGCCAUGACACAGUCUUCCACCCCACUCUCACCCUUUAACCUCCUCCUCAACAGAGGAUUGAGCAUCA
# B14: chr16:23113652:23113653:+_ENSMUSG00000022884_ENSMUST00000115341|mus_hu|motif|central (ssRNA)
# RNA: GGGAGUUCUACAGUCCGACGAUCCCACAAGUAUAUUAUUAAAUGAUAGAGAACAUCUAAUACAACCAUUUCUACAGAACGGGGAAAUAAAUUUCUAAGAAAGAAAGAUUUUACAGACCCCAUCUUUUAUACCCACCCCAACAGCAACAGAGGAUUGAGCAUCA
# B15: chr2:120842415:120842416:+_ENSMUSG00000023572_ENSMUST00000060455|mus_mus|motif|central (ssRNA)
# RNA: GGGAGUUCUACAGUCCGACGAUCCUCUCCUAGCCUGGAGUCUUGGUAACAAUCUCUUCUUAAGGACAGAGGCUGCCUUUCGGUCGAGCAAACACCCUGUCAAAGCUCCACUUCUAAAAGCAGACGUUAAAAAAACUUAAAAAACAACAGAGGAUUGAGCAUCA
# B16: chr11:4127340:4127341:+_ENSG00000167325_ENST00000300738|hu_mus|hu_hu_hu_mus_False|38_98 (ssRNA)
# RNA: GGGAGUUCUACAGUCCGACGAUCGGCAUAGUCAGGGUGCUUAGUAGUCAAGGUCGCGGCUGUCUCAGCAGCCAGGGUGUCCAGUUCCACUGUGGUGACCCCACUGUAUAGGCCUUGGAUUACUUUCAUGGUGAUCUGAGCAGGCAACAGAGGAUUGAGCAUCA
# B17: chr19:8913615:8913616:-_ENSMUSG00000071658_ENSMUST00000096259|mus_hu|mus_mus_mus_hu_False|48_98 (ssRNA)
# RNA: GGGAGUUCUACAGUCCGACGAUCAGGGUACCAAAACACCCUGCCUCAAAUGGGUGCCCCACCCAGUAGGGAGUUGCAGCUGAAAGUAUCCGUAGCAGAAGCAGUGACUAUACGAAAGGAGGCCCCUGGGGAGGGCCAGGCCAGCAACAGAGGAUUGAGCAUCA
# B18: chr7:54825262:54825263:-_ENSG00000132432_ENST00000352861|hu_hu|hu_hu_hu_mus_False|88_88 (ssRNA)
# RNA: GGGAGUUCUACAGUCCGACGAUCCUGCCGGCUGGGCUCCACAAACUUUACCUGAUCAUCCAUGUUUGUUGGAUGGCGGAUUGAGAGCGUAGAGACACGUAGCUCAGGAGAGAACCGAGCCCAACGGAACCGGAAGCUGGCAACCAACAGAGGAUUGAGCAUCA
# B19: chr10:36853299:36853300:-_ENSMUSG00000069662_ENSMUST00000092584|mus_hu|FALSE|FALSE (ssRNA)
# RNA: GGGAGUUCUACAGUCCGACGAUCGCCAUAUUAACAUUUUUUUCCGUUAGAAAACAUGAUGUACAAAACUUUGGAUGAAAAGAUACGUCAAAUUUCAUUUAAUCACUUGGAGGAAAAUCCACCAACUCCAUCAAUACCACCCAACAACAGAGGAUUGAGCAUCA
# B20: chr10:33221514:33221515:-_ENSG00000150093_ENST00000302278|perfect_dup|FALSE|FALSE (ssRNA)
# RNA: GGGAGUUCUACAGUCCGACGAUCAUUUGGCCCUGCUUGUAUACAUUCUCCGCAAGAUUUGGCAUUUGCUUUUAAACAUCUAUUUUUAUCUGUUUGGCCAAAUACAGAACAAAUCAAACUGAUCAAUCCAAUCCAGGAAACCAGCAACAGAGGAUUGAGCAUCA
# B21: chr1:163116782:163116783:-_ENSG00000143248_ENST00000313961|hu_hu|FALSE|FALSE (ssRNA)
# RNA: GGGAGUUCUACAGUCCGACGAUCUUGAAAUAGGUCUGUCCACACUUAAUAUUCUUUUUUAGACCAAUUUAGCUGGAAAUCUAUUACUUAACCCACAUUCAUUGAUAUCAUAGUCUUGUCUUAUAUUUCUUUGCCUUAGGCAGGCAACAGAGGAUUGAGCAUCA
# B22: chr1:212156110:212156111:-_ENSG00000143493_ENST00000366992|hu_hu|motif|central (ssRNA)
# RNA: GGGAGUUCUACAGUCCGACGAUCUCCAUGAGCUGCAAUGCCCCUGUUAUUAUGGUAACAGCACUCUUGGGCUAAUUUGACGGAAUCAGAAGAUCUGGGAGAAGAACUCACAUUUCCUGGAACUAUACUGAAGUAAUGUUUGAUCAACAGAGGAUUGAGCAUCA
# Target: T1, UNK ZnF1-3
# Assay: nsRBNS (natural sequence RNA bind-n-seq); RBNS binding buffer (assumed for nsRBNS): 25 mM Tris pH 7.5, 150 mM KCl, 3 mM MgCl2, 0.01% Triton X-100, 500 ug/ml BSA, 20 U/ml SUPERase-In, 4 C; UNK is unkempt and MSI1 is Musashi-1; names of the RNAs are library labels; protein concentration not given here; high values mean tight binding
row,Binder,binding signal [enrichment R]
1,B1,1.1
2,B2,0.858
3,B3,1.39
4,B4,1.6
5,B5,0.431
6,B6,1.32
7,B7,0.374
8,B8,1.57
9,B9,0.845
10,B10,0.994
11,B11,0.78
12,B12,0.878
13,B13,1.56
14,B14,1.6
15,B15,1.23
16,B16,0.836
17,B17,1.59
18,B18,1.03
19,B19,1.21
20,B20,0.912
21,B21,0.562
22,B22,1.09

# — article PMC12136788
